According to the supplement of paper PMC4967469:

Columns and labels:
Assay in all cases: Viability of human cancer cell lines after 72 h of drug (GDSC screen)
ABT-888 = compound: C[C@]1(c2nc3c(C(N)=O)cccc3[nH]2)CCCN1 [ABT-888]; conditions: top dose 5 µM; top dose inferred
Description: (§1)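 Human cancer cell lines in 384-well plates, medium with 10% serum, drug for 72 h over a 256-fold dose range (nine 2-fold or five 4-fold steps up to the top dose). Adherent lines were fixed and stained with the nucleic acid dye Syto60, suspension lines read with resazurin; signal relative to control wells, capped at 0 and 100%. One two-parameter sigmoid per drug and line, fitted in a mixed model over all curves with the slope shared within a line.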

CMK = compound: Cc1ccc(-c2c(C(=O)CCl)n(CCCO)c3ncnc(N)c23)cc1 [CMK]; conditions: top dose 4 µM; top dose inferred
Description: as §1

ABT-869 = compound: Cc1ccc(F)c(NC(=O)Nc2ccc(-c3cccc4[nH]nc(N)c34)cc2)c1 [ABT-869]; conditions: top dose 1.024 µM; top dose inferred
Description: as §1

Zibotentan = compound: COc1nc(C)cnc1NS(=O)(=O)c1cccnc1-c1ccc(-c2nnco2)cc1 [Zibotentan]; conditions: top dose 20 µM; top dose inferred
Description: as §1

(5Z)-7-Oxozeaenol = compound: COc1cc(O)c2c(c1)/C=C/C[C@H](O)[C@H](O)C(=O)/C=C\C[C@H](C)OC2=O [(5Z)-7-Oxozeaenol]; conditions: top dose 10 µM; top dose inferred
Description: as §1

QL-X-138 = compound: C=CC(=O)Nc1cc(-n2c(=O)ccc3cnc4ccc(-c5cn[nH]c5)cc4c32)ccc1C [QL-X-138]; conditions: top dose 10.24 µM; top dose inferred
Description: as §1

CHIR-99021 = compound: Cc1cnc(-c2cnc(NCCNc3ccc(C#N)cn3)nc2-c2ccc(Cl)cc2Cl)[nH]1 [CHIR-99021]
Description: as §1

MPS-1-IN-1 = compound: COc1cc(N2CCC(O)CC2)ccc1Nc1cc(Nc2ccccc2S(=O)(=O)C(C)C)c2cc[nH]c2n1 [MPS-1-IN-1]; conditions: top dose 20 µM; top dose inferred
Description: as §1

CP466722 = compound: COc1cc2ncnc(-n3nc(-c4ccccn4)nc3N)c2cc1OC [CP466722]; conditions: top dose 16 µM; top dose inferred
Description: as §1

Thapsigargin = compound: C/C=C(/C)C(=O)O[C@H]1C(C)=C2[C@H]([C@@H]1OC(=O)CCCCCCC)[C@@](C)(OC(C)=O)C[C@H](OC(=O)CCC)[C@@]1(O)[C@H]2OC(=O)[C@@]1(C)O [Thapsigargin]; conditions: top dose 0.512 µM; top dose inferred
Description: as §1

GSK269962A = compound: CCn1c(-c2nonc2N)nc2cnc(Oc3cccc(NC(=O)c4ccc(OCCN5CCOCC5)cc4)c3)cc21 [GSK269962A]; conditions: top dose inferred
Description: as §1

Cytarabine = compound: Nc1ccn([C@@H]2O[C@H](CO)[C@@H](O)[C@@H]2O)c(=O)n1 [Cytarabine]; conditions: top dose 2 µM
Description: as §1

KU-55933 = compound: O=c1cc(-c2cccc3c2Sc2ccccc2S3)oc(N2CCOCC2)c1 [KU-55933]; conditions: top dose 10 µM
Description: as §1

[1] = top dose 2.56 µM, screen: GDSC drug entry 154
[2] = top dose 10 µM, screen: GDSC drug entry 1241, top dose inferred
[3] = top dose 2.5 µM, screen: GDSC drug entry 127
[4] = top dose 5 µM, screen: GDSC drug entry 1192

Row | Cell Line | AUC (ABT-888) | IC50 (ABT-888) [nM] | AUC (CMK) | IC50 (CMK) [nM] | AUC (ABT-869) | IC50 (ABT-869) [nM] | AUC (Zibotentan) | IC50 (Zibotentan) [nM] | AUC ((5Z)-7-Oxozeaenol) | IC50 ((5Z)-7-Oxozeaenol) [nM] | AUC (QL-X-138) | IC50 (QL-X-138) [nM] | AUC (CHIR-99021; [1]) | IC50 (CHIR-99021; [1]) [nM] | AUC (CHIR-99021; [2]) | IC50 (CHIR-99021; [2]) [nM] | AUC (MPS-1-IN-1) | IC50 (MPS-1-IN-1) [nM] | AUC (CP466722) | IC50 (CP466722) [nM] | AUC (Thapsigargin) | IC50 (Thapsigargin) [nM] | AUC (GSK269962A; [3]) | IC50 (GSK269962A; [3]) [nM] | AUC (GSK269962A; [4]) | IC50 (GSK269962A; [4]) [nM] | AUC (Cytarabine) | IC50 (Cytarabine) [nM] | AUC (KU-55933) | IC50 (KU-55933) [nM]
1 | NU-DUL-1 (B-cell lymphoma, suspension) | 0.993 | > 5000 | 0.873 | 2610 | 0.993 | > 1020 | 0.993 | > 20000 | 0.848 | 5320 | 0.304 | 204 | 0.993 | > 2560 | 0.992 | > 10000 | 0.88 | 13800 | 0.471 | 847 | 0.359 | 14.2 | 0.986 | > 2500 | 0.989 | > 5000 | 0.188 | 19.1 | 0.888 | 7420
2 | OCI-LY-19 (B-cell lymphoma, suspension) | 0.985 | > 5000 | 0.942 | > 4000 | 0.988 | > 1020 | 0.988 | > 20000 | 0.705 | 2230 | 0.332 | 227 | 0.977 | > 2560 | 0.921 | > 10000 | 0.789 | 8070 | 0.43 | 653 | 0.318 | 10.4 | 0.924 | > 2500 | 0.959 | > 5000 | 0.393 | 65.2 | 0.976 | > 10000
3 | OCUB-M (breast, adherent) | 0.99 | > 5000 | 0.901 | 3960 | 0.989 | > 1020 | 0.99 | > 20000 | 0.741 | 2720 | 0.276 | 164 | 0.989 | > 2560 | 0.943 | > 10000 | 0.87 | 14500 | 0.705 | 3450 | 0.122 | 2.56 | 0.949 | > 2500 | 0.735 | 1300 | 0.99 | > 2000 | 0.984 | > 10000
4 | OMC-1 (cervix, adherent) | 0.988 | > 5000 | 0.968 | > 4000 | 0.985 | > 1020 | 0.988 | > 20000 | 0.761 | 3710 | 0.976 | > 10200 | 0.988 | > 2560 | 0.986 | > 10000 | 0.943 | > 20000 | 0.841 | 11900 | 0.591 | 57.6 | 0.988 | > 2500 | 0.948 | > 5000 | 0.736 | 610 | 0.968 | > 10000
5 | ONS-76 (medulloblastoma, adherent) | 0.973 | > 5000 | 0.94 | > 4000 | 0.978 | > 1020 | 0.973 | > 20000 | 0.425 | 385 | 0.362 | 258 | 0.975 | > 2560 | 0.983 | > 10000 | 0.973 | > 20000 | 0.696 | 3730 | 0.243 | 5.42 | 0.938 | > 2500 | 0.9 | > 5000 | 0.643 | 321 | 0.984 | > 10000
6 | OPM-2 (myeloma, suspension) | 0.994 | > 5000 | 0.952 | > 4000 | 0.991 | > 1020 | 0.989 | > 20000 | 0.886 | 7540 | 0.83 | 4860 | 0.988 | > 2560 | 0.993 | > 10000 | 0.797 | 7520 | 0.774 | 5160 | 0.283 | 8.97 | 0.954 | > 2500 | 0.977 | > 5000 | 0.993 | > 2000 | 0.992 | > 10000
7 | OS-RC-2 (kidney, adherent) | 0.835 | > 5000 | 0.866 | > 4000 | 0.975 | > 1020 | 0.976 | > 20000 | 0.77 | 5640 | 0.7 | 3060 | 0.944 | > 2560 | 0.952 | > 10000 | 0.949 | > 20000 | 0.847 | > 16000 | 0.442 | 20.7 | 0.96 | > 2500 | 0.899 | > 5000 | 0.743 | 867 | 0.971 | > 10000
8 | P30-OHK (lymphoblastic leukaemia, suspension) | 0.991 | > 5000 | 0.913 | > 4000 | 0.99 | > 1020 | 0.99 | > 20000 | 0.55 | 837 | 0.366 | 293 | 0.99 | > 2560 | 0.922 | > 10000 | 0.802 | 7980 | 0.557 | 1400 | 0.122 | 2.75 | 0.916 | > 2500 | 0.561 | 444 | 0.36 | 55 | 0.915 | > 10000
9 | P31-FUJ (acute myeloid leukaemia, suspension) | 0.993 | > 5000 | 0.984 | > 4000 | 0.995 | > 1020 | 0.995 | > 20000 | 0.626 | 1270 | 0.93 | 10100 | 0.996 | > 2560 | 0.996 | > 10000 | 0.989 | > 20000 | 0.915 | 13600 | 0.265 | 8.35 | 0.995 | > 2500 | 0.149 | 38.8 | 0.996 | > 2000 | 0.996 | > 10000

IC50 is the fitted dose that halves viability relative to control wells, and lower means more sensitive; a fit beyond the top or the lowest dose is shown as a bound at that dose. For AUC the same curve is integrated over the 256-fold range of doses and scaled to a fraction; it is 1 without any effect and falls as sensitivity rises. For part of these data: A top dose marked as inferred comes from the curve model; the source does not state it. For part of these data: Drugs with an entry number were screened twice under separate entries, and the two screens often disagree.
